From a compilation of properties of binary mixtures (doi:10.1007/s10765-020-02720-w)
Some of these densities may be calculated back from excess volumes.

Test: xn = mol fraction of the nth substance listed
Details: 100 kPa

C[n+]1ccn(CCC(F)(F)C(F)(F)F)c1.F[P-](F)(F)(F)(F)F + CCCC[n+]1ccn(C)c1.F[P-](F)(F)(F)(F)F
mass density [kg/m3]
Details	x2 = 0	x2 = 0.972
293.15 K	–	1379.3
298.15 K	–	1375.1
303.15 K	–	1370.9
308.15 K	–	1366.7
318.15 K	–	1358.3
323.15 K	–	1354.1
328.15 K	–	1350
333.15 K	–	1345.8
343.15 K	1595.4	1337.6
345.65 K	1592.9	–
348.15 K	1590.4	–
350.65 K	1587.9	–
353.15 K	1585.6	1329.5
355.65 K	1583.1	–
358.15 K	1580.8	–
360.65 K	1578.5	–
363.15 K	1576.2	1321.4

CCCC[n+]1ccn(C)c1.F[P-](F)(F)(F)(F)F + C[n+]1ccn(CCC(F)(F)C(F)(F)F)c1.F[P-](F)(F)(F)(F)F
x1 = 1
Details	mass density [kg/m3]
293.15 K	1371.6
298.15 K	1367.4
303.15 K	1363.2
308.15 K	1359
313.15 K	1354.8
318.15 K	1350.7
323.15 K	1346.5
343.15 K	1330.2
353.15 K	1322.1
358.15 K	1318.1
363.15 K	1314.1
